# In ChEMBL document CHEMBL5606460, “ASAP - DENV-2 NS2B-NS3 protease fluorescence single point” (2024):
# Among all 2,000 compounds or so, about 110 (5.5%) showed an effect of 50% or more. This is one part of the list.
# Molecular target: Genome polyprotein (dengue virus type 2) (UniProt P29990)
# [1] = Thailand/16681/1984, Concentration 25.0 uM, Number of replicates 1.0
compound,measurement,setting,value
Cc1cc(CO)c2cccc(Cc3cccc(NC(=O)Cc4c[nH]c5ccccc45)c3)c2n1,inhibition,"Thailand/16681/1984, Concentration 49.95 uM, Number of replicates 2.0, Standard deviation 0.8412168519630298 %",-0.469%
same,inhibition,"Thailand/16681/1984, Concentration 99.9 uM, Number of replicates 2.0, Standard deviation 1.20193607081355 %",3.26%
O=C(NCc1n[nH]c2c1CCCC2)[C@@]1(c2ccc(F)cc2)CCCNC1,inhibition,"Thailand/16681/1984, Concentration 49.5 uM, Number of replicates 2.0, Standard deviation 2.075637416605533 %",-2.05%
same,inhibition,"Thailand/16681/1984, Concentration 99.01 uM, Number of replicates 2.0, Standard deviation 0.06871580034367653 %",-1.46%
same,inhibition,"Thailand/16681/1984, Concentration 198.0 uM, Number of replicates 2.0, Standard deviation 0.6981737355712393 %",-0.123%
CCc1noc([C@@H](C)n2cc(C3CCNCC3)c(C)n2)n1,inhibition,"Thailand/16681/1984, Concentration 49.5 uM, Number of replicates 2.0, Standard deviation 2.2002562489050286 %",-3.46%
same,inhibition,"Thailand/16681/1984, Concentration 99.01 uM, Number of replicates 2.0, Standard deviation 0.4258731679531168 %",-3.6%
same,inhibition,"Thailand/16681/1984, Concentration 198.0 uM, Number of replicates 2.0, Standard deviation 1.1449005951850917 %",-3.94%
Cc1cnccc1NC(=O)c1cccn(CC2CCNCC2)c1=O,inhibition,"Thailand/16681/1984, Concentration 49.5 uM, Number of replicates 2.0, Standard deviation 1.0139655097272078 %",3.41%
same,inhibition,"Thailand/16681/1984, Concentration 99.01 uM, Number of replicates 2.0, Standard deviation 0.45414409382246623 %",8.44%
same,inhibition,"Thailand/16681/1984, Concentration 198.0 uM, Number of replicates 2.0, Standard deviation 0.4741958784700092 %",16.8%
O=C(Cc1cc2ccccc2[nH]1)NCc1cn2ccccc2n1,inhibition,"Thailand/16681/1984, Concentration 49.5 uM, Number of replicates 2.0, Standard deviation 1.8228117907928092 %",-0.696%
same,inhibition,"Thailand/16681/1984, Concentration 99.01 uM, Number of replicates 2.0, Standard deviation 0.2647063587926113 %",1.18%
same,inhibition,"Thailand/16681/1984, Concentration 198.0 uM, Number of replicates 2.0, Standard deviation 0.44504054313150715 %",2.28%
Cn1cc(NC(=O)c2ccccc2C(F)(F)F)c(-c2cnc3cn(C)nc3c2)n1,inhibition,"Thailand/16681/1984, Concentration 49.5 uM, Number of replicates 2.0, Standard deviation 6.457702028088129 %",-3.02%
same,inhibition,"Thailand/16681/1984, Concentration 99.01 uM, Number of replicates 2.0, Standard deviation 5.49571101622526 %",-3.85%
same,inhibition,"Thailand/16681/1984, Concentration 198.0 uM, Number of replicates 2.0, Standard deviation 4.391739589145666 %",-2.36%
O=C(O)c1cccc(NC(=O)c2cccc(OCc3c(Cl)cccc3Cl)c2)c1,inhibition,"Thailand/16681/1984, Concentration 49.5 uM, Number of replicates 2.0, Standard deviation 0.517131041635451 %",14.9%
same,inhibition,"Thailand/16681/1984, Concentration 99.01 uM, Number of replicates 2.0, Standard deviation 0.3657402361338958 %",47.1%
same,inhibition,"Thailand/16681/1984, Concentration 198.0 uM, Number of replicates 2.0, Standard deviation 0.23203020217005468 %",92.1%
Cc1nnccc1Cn1ncc(C2CCNCC2)c1C,inhibition,"Thailand/16681/1984, Concentration 49.5 uM, Number of replicates 2.0, Standard deviation 1.6182116637908872 %",-1.57%
same,inhibition,"Thailand/16681/1984, Concentration 99.01 uM, Number of replicates 2.0, Standard deviation 1.1987345119069654 %",-1.86%
same,inhibition,"Thailand/16681/1984, Concentration 198.0 uM, Number of replicates 2.0, Standard deviation 1.646461073694072 %",-2.12%
Cc1cc(CO)c2cccc(Cc3ccccc3C(=O)NCC3CCOCC3)c2n1,inhibition,"Thailand/16681/1984, Concentration 49.95 uM, Number of replicates 2.0, Standard deviation 0.20194122984333937 %",-2.05%
same,inhibition,"Thailand/16681/1984, Concentration 99.9 uM, Number of replicates 2.0, Standard deviation 0.1983479581266946 %",-1.04%
Cc1cc(CO)c2cccc(C[C@H](NC(=O)CNC3CC3)C(=O)O)c2n1,inhibition,"Thailand/16681/1984, Concentration 49.95 uM, Number of replicates 2.0, Standard deviation 1.120825978140881 %",2.76%
same,inhibition,"Thailand/16681/1984, Concentration 99.9 uM, Number of replicates 2.0, Standard deviation 4.280623426997303 %",7.25%
COc1ccc(OC)c(CN2CCN(C(=O)C3CCN(c4ccc(C=O)cc4)CC3)CC2)c1,inhibition,[1],13.6%
COc1ccc(CCCNC(=O)C2CCN(c3ccc(C=O)cc3)CC2)cc1,inhibition,[1],10.5%
N#Cc1cnn(-c2ccccn2)c1NC(=O)C1CCN(c2ccc(C=O)cc2)CC1,inhibition,[1],11.8%
O=C(c1cc(Cl)ccc1NS(=O)(=O)c1ccc(Oc2ccccc2Cl)cc1)N1CCC[C@H](O)C1,inhibition,"Thailand/16681/1984, Concentration 49.5 uM, Number of replicates 2.0, Standard deviation 1.2236693461292836 %",22.2%
same,inhibition,"Thailand/16681/1984, Concentration 99.01 uM, Number of replicates 2.0, Standard deviation 0.043163767671764885 %",86.9%
same,inhibition,"Thailand/16681/1984, Concentration 198.0 uM, Number of replicates 2.0, Standard deviation 0.0596286869236367 %",96.8%
CS(=O)(=O)C1(CN2CC[C@H](c3c[nH]c4ccccc34)C2)CC1,inhibition,"Thailand/16681/1984, Concentration 49.5 uM, Number of replicates 2.0, Standard deviation 3.3698314636697324 %",-1.85%
same,inhibition,"Thailand/16681/1984, Concentration 99.01 uM, Number of replicates 2.0, Standard deviation 2.803901957891398 %",-0.556%
same,inhibition,"Thailand/16681/1984, Concentration 198.0 uM, Number of replicates 2.0, Standard deviation 2.4749285250559807 %",2.95%
CC(C)(C)N(Cc1ccccc1)C(=O)C1CCN(c2ccc(C=O)cc2)CC1,inhibition,[1],13.3%
CCOC(=O)c1coc(Cn2cc(C3CCNCC3)c(C)n2)n1,inhibition,"Thailand/16681/1984, Concentration 49.5 uM, Number of replicates 2.0, Standard deviation 0.6058500102369131 %",-0.283%
same,inhibition,"Thailand/16681/1984, Concentration 99.01 uM, Number of replicates 2.0, Standard deviation 1.6851083007857124 %",-0.009%
same,inhibition,"Thailand/16681/1984, Concentration 198.0 uM, Number of replicates 2.0, Standard deviation 0.1399560493991858 %",0.367%
O=Cc1ccc(N2CCC(C(=O)N[C@@H](CCO)c3ccccc3F)CC2)cc1,inhibition,[1],11.4%
Cn1cc(CNC(=O)c2ccccc2-c2cccnc2)cn1,inhibition,"Thailand/16681/1984, Concentration 49.5 uM, Number of replicates 2.0, Standard deviation 1.1096991679871562 %",-0.458%
same,inhibition,"Thailand/16681/1984, Concentration 99.01 uM, Number of replicates 2.0, Standard deviation 1.523820403729435 %",-0.795%
same,inhibition,"Thailand/16681/1984, Concentration 198.0 uM, Number of replicates 2.0, Standard deviation 0.8526943871166377 %",-1.6%
